# About 530 (0.16%) of roughly 340,000 compounds were called active. The shares of active, inactive and inconclusive entries below differ from those in the screen. Cut-off read from the data, not from the text of the source: active = activity change below about -80%; inconclusive = between about -30% and that limit; inactive = weaker than that.
# Assay: Small Molecules that selectively kill Giardia lamblia: qHTS;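 note: parasites exposed to compound for two days anaerobically before the ATP read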
# Details: Giardia lamblia trophozoite viability; at 7.66 µM; active compounds read low
# In short: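 ATP-content bioluminescence gauges trophozoite survival. Cells (100/well) receive compound and incubate anaerobically for 48 hrs at 37 deg C; detection reagent follows for 15-30 min at room temperature.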
# % is set by controls: 0 for no effect and ±100 for the full control effect.
row,Compound,activity change
1,C[C@@H]1C[C@@H]([C@H](O)CC2CC(=O)NC(=O)C2)C(=O)[C@@H](C)C1,active: -81.9%
2,CCCCn1c(C)c(C(=O)O)c2cc(OC)c3ccccc3c21,inconclusive: -31.1% [inhibitor]
3,CCn1nc(-c2ccccc2)nc2c(=O)n(C)c(=O)nc1-2,active: -88.6%
4,COc1cc(C2c3cc4c(c(O)c3CC3COC(=O)C32)OCO4)cc(OC)c1O (centres undefined),inconclusive: -31.1% [inhibitor]
5,CCOC(=O)C1(CCOc2ccccc2)CCN(Cc2cccc(O)c2)CC1,inactive: 6.27%
6,CCOc1cc2c(cc1OCC)-n1cccc1C(c1cccc([N+](=O)[O-])c1)NC2 (centres undefined),inactive: 20.4%
7,COc1ccc(CNCCc2c(C)[nH]c3ccc(OC(F)(F)F)cc23)c(OC)c1,inactive: -3.01%
8,COc1ccc(-c2cc(C(=O)N3CCC4(CC3)OCCO4)c3ccccc3n2)cc1,inconclusive: -42.4% [inhibitor]
9,N#C/C(=C\c1ccc(O)cc1)C(=O)O (tested in a mixture with another compound),inconclusive: -35% [inhibitor]
10,O=[N+]([O-])c1cc(Cl)c(Cl)cc1Cl,inconclusive: -37% [inhibitor]
11,COc1cc(OC)c(OC)cc1CNCCc1cccc(F)c1,inactive: -15.9%
12,CN1CCN(Cc2ccc3ccccc3c2)CC1,inconclusive: -33.5% [inhibitor]
13,CCCCc1cc(=O)oc2cc(OCC(=O)N3C[C@H]4C[C@@H](C3)c3cccc(=O)n3C4)c(Cl)cc12,inconclusive: -35.8% [inhibitor]
14,CN1CCCN(c2ccc([N+](=O)[O-])nc2)CC1,inconclusive: -60.5% [inhibitor]
15,O=C1NC(=O)C(=Cc2coc3ccc(O)cc3c2=O)C(=O)N1,inconclusive: -40.8% [inhibitor]
16,COC(=O)C1=C(c2ccc(F)cc2OCc2ccccc2)C[C@@H]2CC[C@H]1N2C(=O)NCc1ccc([N+](=O)[O-])cc1,inconclusive: -36.4% [inhibitor]
17,CC1=CC2OC3CC4OC(=O)C=CC=CC(=O)OCCC(C)C(O)C(=O)OCC2(CC1O)C4(C)C31CO1 (centres undefined),inconclusive: -56.9% [inhibitor]
18,COC(=O)[C@H]1C[C@@H]1[C@H](NP(=O)(c1ccccc1)c1ccccc1)c1ccccc1,inactive: 6.29%
19,C[N+](C)(C)c1ccccc1,inconclusive: -35.8% [inhibitor]
20,CCOC(=O)Cn1cc(C(=O)c2ccccc2)c2ccccc21,inconclusive: -32.1% [inhibitor]
21,COc1ccc(CC(C)Nc2cccc(F)c2)cc1 (centres undefined),inconclusive: -35.4% [inhibitor]

row,Compound,activity change
1,COc1ccc(/C=C2\C(=O)NC(=O)N(CCC3=CCCCC3)C2=O)c(OC)c1,inconclusive: -32.8% [inhibitor]
2,C=Cn1ccnc1P(=S)(c1ccn(C)c1)c1nccn1C=C,inconclusive: -30.4% [inhibitor]
3,COc1ccc(CC2NCC(O)C2OC(C)=O)cc1 (centres undefined),inconclusive: -68.3% [inhibitor]
4,S=C1CN=C(c2ccccc2Cl)c2cc(Cl)ccc2N1,inactive: 10.9%
5,Cc1c(C(=O)C(=O)N2CCOCC2)c2ccccc2n1Cc1ccccc1,inactive: 17.1%
6,COc1ccccc1N1C(=O)NC(=O)/C(=C\c2cnn(-c3ccccc3)c2)C1=O,inconclusive: -30.2% [inhibitor]
7,COc1cc(OC)c(OC)cc1C=O,inconclusive: -33.3% [inhibitor]
8,NN=C(N)N,inconclusive: -45.6% [inhibitor]
9,CC(=O)N1CN2CN(C(C)=O)CC(C(=O)c3ccccc3)(C2)C1,inconclusive: -32.6% [inhibitor]
10,OCCCCO,inconclusive: -34.9% [inhibitor]
11,COC(=O)C1=C(c2ccc(F)cc2OCc2ccccc2)C[C@@H]2CC[C@H]1N2C,inconclusive: -30.4% [inhibitor]
12,CC1=CC2OC3CC4OC(=O)C=CC=CC(C(C)O)OCC(O)C(C)CC(=O)OCC2(CC1O)C4(C)C31CO1 (centres undefined),inconclusive: -41.6% [inhibitor]
13,CCOC(=O)c1ccccc1N,inconclusive: -30.7% [inhibitor]
14,CCCCCn1c(=O)c(C(=O)Nc2ccccc2Cl)c(O)c2ccccc21,inactive: -2.61%
15,C/C=C(\C)C(=O)N[C@@H](c1ccccc1)[C@@H](O)C(=O)O[C@H]1C[C@@]2(O)[C@@H](OC(=O)c3ccccc3)C3[C@](C)(C(=O)[C@H](OC(C)=O)C(=C1C)C2(C)C)[C@H](O)C[C@H]1OC[C@@]31OC(C)=O (some centres undefined),inconclusive: -31.6% [inhibitor]
16,O=[N+]([O-])c1ccc(N2CCCNCC2)c2ncccc12,inconclusive: -48.1% [inhibitor]
17,Cc1c(P(=S)(c2ccccc2)c2ccccc2)[n+]2ccccc2n1C,inconclusive: -31% [inhibitor]
18,CCN(CC)c1ccc(C=C2C(=O)N(C)C(=S)N(C)C2=O)o1,inactive: 0.911%
19,Cc1cc(N(CCCl)CCCl)ccc1/C=N/N=C(\N)c1cnccn1,inconclusive: -34.9% [inhibitor]
20,O=[N+]([O-])c1ccc(N2CCCCCC2)c2nonc12,inconclusive: -65.6% [inhibitor]
21,CC1(C)CSC(=NCc2ccccc2)N1,inactive: 0.456%

row,Compound,activity change
1,O=[N+]([O-])c1ccc(N2CCCC2)c2ccncc12,inconclusive: -33.4% [inhibitor]
2,CN(c1ccccc1)c1ccc([N+](=O)[O-])c2nonc12,active: -83.4%
3,CCCn1c(C)c(C(=O)c2cccc3ccccc23)c2ccccc21,inconclusive: -41.1% [inhibitor]
4,CCCCn1c(=O)c(C(=O)NCc2ccco2)c(O)c2ccccc21,inactive: -13.2%
5,ClCCOCCCl,inconclusive: -55.3% [inhibitor]
6,CN1CCN(c2nc3ccccc3o2)CC1,inconclusive: -40.7% [inhibitor]
7,COc1ccc(CCNCc2ccc(Br)cc2)cc1OC,inactive: 14.2%
8,CC1=CC2OC3CC4OC(=O)C=CC=CC(=O)OCCC(C)C(O)C(=O)OCC2(CC1)C4(C)C31CO1 (centres undefined),inconclusive: -64.2% [inhibitor]
9,COc1ccccc1N1CCN(Cc2ccc(F)cc2)CC1,inactive: 8.82%
10,COC(=O)C1=C(c2cccc(OCc3ccccc3)c2)C[C@@H]2CC[C@H]1N2C(=O)NCCOc1ccccc1,inconclusive: -35.3% [inhibitor]
11,CCOC(=O)C1CCCN(c2ccc([N+](=O)[O-])c3nonc23)C1 (centres undefined),active: -94.8%
12,NP(=O)(Oc1ccccc1Cl)Oc1ccccc1Cl,inactive: 4.47%
13,COc1ccc(CC(=O)N2C[C@H]3C[C@@H](C2)c2cccc(=O)n2C3)cc1,inactive: -22.4%
14,COc1cc2c(cc1OC)CN(c1ccc([N+](=O)[O-])c(C(F)(F)F)c1)CC2,inconclusive: -34.3% [inhibitor]
15,O=c1c2ccccc2nc(/C=C/c2ccc(O)cc2)n1-c1cccc(O)c1,inconclusive: -48% [inhibitor]
16,CCn1cc(C=C2C(=O)N(C)C(=O)N(C)C2=O)c2ccccc21,inconclusive: -32.3% [inhibitor]
17,CCOP(=S)(OCC)Oc1cc(C)nc(C(C)C)n1,inconclusive: -31.6% [inhibitor]
18,CC(C)(O)C1C2OC(=O)C1C1(O)CC3OC34C(=O)OC2C14C (centres undefined),inconclusive: -49.1% [inhibitor]
19,CCOc1ccc(-n2c(-c3cccs3)nc3ccccc3c2=O)cc1,inconclusive: -47% [inhibitor]
20,COC12C(COC(N)=O)C3=C(C(=O)C(C)=C(N)C3=O)N1CC1C2N1C (centres undefined),inconclusive: -47.7% [inhibitor]
21,CCOc1cc2c(cc1OCC)-n1cccc1C(c1ccccc1OC)NC2 (centres undefined),inactive: -5.63%

row,Compound,activity change
1,CC(=O)OCC[N+](C)(C)C,inconclusive: -32.8% [inhibitor]
2,O=c1c2ccccc2nc(/C=C/c2ccc(O)cc2)n1-c1ccccc1O,inactive: -12.9%
3,CC(=O)Nc1ccccc1C(=O)OCc1ccccc1F,inconclusive: -41.9% [inhibitor]
4,CN1C(=O)/C(=C/c2cccn2-c2ccc3ccccc3c2)C(=O)NC1=S,inactive: -3.1%
5,COC(=O)C1=C(c2ccc(OC)c(OC)c2)C[C@@H]2CC[C@H]1N2C(=O)N1CCOCC1,inconclusive: -33.9% [inhibitor]
6,COc1ccc(C(=O)O)cc1OC,inactive: 12.8%
7,O=[N+]([O-])c1ccc(NCc2ccc(Cl)cc2)c2ccncc12,inactive: 18.8%
8,O=C1NC(=O)N(Cc2ccc(F)cc2)C(=O)/C1=C\C=C\c1ccco1,inconclusive: -42.8% [inhibitor]
9,O[C@@H]1CCCN2CCc3c([nH]c4ccccc34)[C@H]12,inconclusive: -34.8% [inhibitor]
10,COC(COC(N)=O)C1=C(N2CC2)C(=O)C(C)=C(N2CC2)C1=O (centres undefined),inconclusive: -47.5% [inhibitor]
11,COC(=O)C1=C(c2cccc(C#N)c2)C[C@@H]2CC[C@H]1N2C(=O)NCCNC(C)=O,inconclusive: -34.4% [inhibitor]
12,O=C1CN=C(c2ccccc2)c2cc(Br)ccc2N1Cc1cc(=O)n2ccccc2n1,inconclusive: -31.7% [inhibitor]
13,CCC(C(=O)Nc1ccc(Cl)cc1)N1CCCC1=O (centres undefined),inconclusive: -36.5% [inhibitor]
14,CCCCCn1c(=O)c(C(=O)Nc2ccccc2N)c(O)c2ccccc21,inconclusive: -38.9% [inhibitor]
15,O=[N+]([O-])c1ccc(O)c([N+](=O)[O-])c1,inconclusive: -72.3% [inhibitor]
16,Cc1nc2ccccc2c(=O)n1-c1ccc(F)cc1F,inconclusive: -30.8% [inhibitor]
17,C[C@]12CCC(=O)C=C1CC[C@@H]1C2[C@H](O)C[C@]2(C)C(=O)CCC12 (some centres undefined),inconclusive: -44.3% [inhibitor]
18,CC(=O)c1c(C)n(Cc2ccccc2Cl)c2ccc(O)cc12,inconclusive: -30.6% [inhibitor]
19,Nc1c(Br)cc([N+](=O)[O-])cc1[N+](=O)[O-],inactive: 37.5%
20,CCOc1ccc(C2CC(c3c(O)n(C)c(=O)n(C)c3=O)=NN2)cc1 (centres undefined),inconclusive: -53% [inhibitor]
21,O=C(/C=C/c1ccc2c(c1)OCO2)c1c(O)n(CCc2ccccc2)c(=O)[nH]c1=O,inconclusive: -34.9% [inhibitor]
